Each structure is given as a SMILES string. Out of some 310,000 compounds screened, about 14,000 (4.5%) showed an effect of 50% or more. Effects have a minus sign here. This is one part of the list.
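Further: peak tail current of the secondary pulse compared with the same well before compound.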

In this assay the target is human ether-à-go-go-related gene (hERG) potassium channel (human, UniProt Q12809). Put plainly: primary screen, population patch clamp on CHO cells stably expressing hERG.
human ether-à-go-go-related gene (hERG) potassium channel, sequence (Q12809 whole entry, looked up): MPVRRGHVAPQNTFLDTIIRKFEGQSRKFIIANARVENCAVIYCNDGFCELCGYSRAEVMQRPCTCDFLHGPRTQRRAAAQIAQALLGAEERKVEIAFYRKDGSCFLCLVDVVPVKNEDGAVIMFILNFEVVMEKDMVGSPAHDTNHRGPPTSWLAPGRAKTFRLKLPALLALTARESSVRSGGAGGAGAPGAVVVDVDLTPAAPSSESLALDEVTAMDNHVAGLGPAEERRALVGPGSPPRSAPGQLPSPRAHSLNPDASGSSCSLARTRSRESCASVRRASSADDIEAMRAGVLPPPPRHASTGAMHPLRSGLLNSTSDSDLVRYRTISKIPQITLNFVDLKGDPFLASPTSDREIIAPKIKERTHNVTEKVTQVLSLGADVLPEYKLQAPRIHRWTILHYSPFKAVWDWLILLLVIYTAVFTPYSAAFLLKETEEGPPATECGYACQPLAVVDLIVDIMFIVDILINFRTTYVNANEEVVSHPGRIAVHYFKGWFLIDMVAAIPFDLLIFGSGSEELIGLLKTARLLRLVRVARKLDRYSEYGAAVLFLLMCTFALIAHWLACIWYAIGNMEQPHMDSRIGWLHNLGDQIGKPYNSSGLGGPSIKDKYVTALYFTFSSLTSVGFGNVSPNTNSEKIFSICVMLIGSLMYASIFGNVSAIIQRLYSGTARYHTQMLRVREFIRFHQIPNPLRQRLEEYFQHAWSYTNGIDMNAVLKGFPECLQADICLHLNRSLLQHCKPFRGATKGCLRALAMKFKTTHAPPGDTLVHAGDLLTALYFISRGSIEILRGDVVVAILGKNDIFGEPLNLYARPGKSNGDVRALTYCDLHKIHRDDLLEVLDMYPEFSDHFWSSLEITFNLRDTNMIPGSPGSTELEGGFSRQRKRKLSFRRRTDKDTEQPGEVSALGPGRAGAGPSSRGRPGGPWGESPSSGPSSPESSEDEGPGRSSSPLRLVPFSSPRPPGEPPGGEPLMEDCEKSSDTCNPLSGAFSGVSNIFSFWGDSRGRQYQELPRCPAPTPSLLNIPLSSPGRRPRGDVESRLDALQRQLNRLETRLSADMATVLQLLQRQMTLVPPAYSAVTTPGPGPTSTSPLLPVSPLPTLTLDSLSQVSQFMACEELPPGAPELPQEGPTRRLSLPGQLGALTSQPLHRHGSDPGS
As for `CC(C)(C)c1ccc(OCCNCc2ccccc2)cc1.O=C(O)C(=O)O`, the “hERG current change (%, negative = inhibition) at 10uM” value was -2.69%.
For `CCCOC1CCCN(C(=O)c2ccc(OC)c(OC3CCN(C(C)C)CC3)c2)C1` (centres unmarked) the value was -5.71%; for `C/C(=N\NS(=O)(=O)c1ccc(C)cc1)c1cc2ccccc2oc1=O`, -13.5%; for `O=Cc1cc2ccccc2nc1SCc1ccc(Cl)c(Cl)c1`, 1.55%.
To `Cc1ccc(S(=O)(=O)N2CCN(C(=O)CSc3nc(N)cc(=O)[nH]3)CC2)c(C)c1` belongs 18.2%.
For `CC(=O)N1CCN(C(=O)COC(=O)CNC(=O)c2ccccc2C)CC1` the value was 13.6%; for `COC(=O)Cc1[nH]nc2c1C(c1cccc(OC)c1OC)C(C#N)=C(N)O2` (centres unmarked), 11.2%.
Take `O=C(c1ccc2c(c1)N(Cc1ccc(F)cc1)C(=O)c1ccccc1S2(=O)=O)N1CCN(c2ccccn2)CC1`: the “hERG current change (%, negative = inhibition) at 10uM” value was determined as 7.45%.
Regarding `CCCN(CC(=O)Nc1ccccc1OC)C(=O)c1ccc(=O)[nH]c1`, the “hERG current change (%, negative = inhibition) at 10uM” value is recorded as 6.8%.
To `COc1ccc(Br)cc1CN(C)C(=O)CNC(=O)c1ccc2ccccc2c1` belongs 10.6%; to `COc1ccccc1OCC(=O)Nc1ccc2c(c1)OCCO2`, 4.57%.
Turning to `Cc1c(NC(=S)NCc2ccc(F)cc2)cccc1[N+](=O)[O-]`, the “hERG current change (%, negative = inhibition) at 10uM” value came to 10.2%.
To `CC(C)CC(=O)Nc1ccnn1C1CCN(C(=O)c2ccc(Cl)cc2F)CC1` belongs -30.4%; to `CC(C)c1ccc(CN2CCN(S(=O)(=O)c3ccc(Cl)s3)CC2)cc1`, -3.1%; to `CC(C)(C)C1COc2ccccc2N1C(=O)c1ccccc1Cl` (centres unmarked), 10.5%.
To `CC(C)(C)C(=O)NC(NC(=S)Nc1ccc(S(N)(=O)=O)cc1)C(Cl)(Cl)Cl` (centres unmarked) belongs 3.64%; to `O=C(NC(=S)N1CCCC1)c1ccccc1F`, 6.7%.
In the case of `CCNC(=O)NC(C(=O)OC)C12CC3CC(CC(C3)C1)C2` (centres unmarked), the “hERG current change (%, negative = inhibition) at 10uM” value stood at 7.99%.
For `Cc1cc(N2C(=O)Cc3ccccc3C2=O)ccc1C(C)C` the value was -15.6%.
To `CCCCNC(=O)CO/N=C(\C)c1cc2ccccc2o1` belongs -2.51%; to `C/C(CC(=O)Nc1ccc(Cl)cc1Cl)=N\NC(=O)C(=O)N1CCCC1`, 4.17%.
Turning to `O=C1CCCCCN1CP(=O)(O)CN1CCCCCC1=O`, the “hERG current change (%, negative = inhibition) at 10uM” value worked out at 12%.
Consider `O=C(NCc1cccs1)C1CC(c2ccc(Cl)cc2)=NO1` (centres unmarked), for which the “hERG current change (%, negative = inhibition) at 10uM” value is 13.9%.
For `O=C(COC(=O)CN1C(=O)NC2(CCCC2)C1=O)Nc1c(Cl)cccc1C(F)(F)F` the value was 9.8%.
To `CCOC(=O)NC(Nc1ccc(C)cn1)(C(F)(F)F)C(F)(F)F` belongs 12.3%.
To `N#Cc1ccccc1NC(=S)Nc1ccc(F)cc1` belongs 16.2%; to `COc1ccc(N2CCN(C3CCCN(S(=O)(=O)c4ccccc4)C3)CC2)cc1` (centres unmarked), -31.1%.
For the molecule `O=C(Oc1ccccc1-c1nnco1)c1ccc(Cl)cc1`, the “hERG current change (%, negative = inhibition) at 10uM” value is given as -8.74%.
For `CCOc1ccc(Br)cc1S(=O)(=O)Nc1ccc(C(=O)OC(C)C(=O)N(C)c2ccccc2)cc1` (centres unmarked) the value was 12.6%; for `O=c1[nH]c2cccnc2c2ccsc12`, 15%; for `Nc1sc2c([n+]1CCCS(=O)(=O)[O-])CCCC2`, 22.3%.
As to `Cc1c(CC(=O)O)c(=O)oc2c(C)c(OCc3ccccc3Br)ccc12`, the “hERG current change (%, negative = inhibition) at 10uM” value came out at 7.13%.
For `COc1ccc(C(=O)NC2CCN(C(=O)NC3CCCCC3)CC2)cc1` the value was 10.1%; for `CC(C)C(=O)Nc1ccc(S(=O)(=O)N2CCC(c3nc4ccccc4[nH]3)CC2)cc1`, -42.7%; for `CCCCCCC(=O)Nc1nc(C)c(-c2csc(Nc3cc(OC)ccc3OC)n2)s1`, 8.99%.
For `O=[N+]([O-])c1cccnc1N1CCN(c2ccc(F)cc2)CC1` the value was -22.8%; for `O=C(Nc1cccc(-c2cccc(F)c2)c1)C1CCN(C2CCOCC2)CC1`, -75%.
For `CC1CCCCN1C(=O)Cn1nnc(-c2cccnc2)n1` (centres unmarked) the value was 13.1%; for `CCOc1cc2c(cc1OCC)C(c1ccccc1)N(c1ccc(C(=O)O)cc1)C(=O)C2` (centres unmarked), 3.43%; for `Cc1cc(C(F)(F)F)nn1CC(=O)Nc1ccc(Br)c2cccnc12`, -13.2%.
As for `CCC(=NCCN1CCCCC1)c1c(O)n(C)c(=O)n(C)c1=O`, the “hERG current change (%, negative = inhibition) at 10uM” value is -0.146%.
To `COc1cc(C(=O)NNC(=S)NC(=O)c2ccc(F)cc2)cc(OC)c1OC` belongs -34.2%.
To `Cl.c1cc(CNC2C3CC4CC(C3)CC2C4)ccn1` (centres unmarked) belongs -2.21%; to `COc1ccccc1CNC(=O)c1cccc(N(C)C)c1`, -2.52%.
To `Clc1ccc(OCc2nc(-c3ccccn3)n[nH]2)cc1` belongs -55.6%; to `Cc1ccc(S(=O)(=O)N2CCN(C(=O)COC(=O)CCOc3cc(C)ccc3C)CC2)cc1`, 2.58%.
For `S=C(NCCCN1CCOCC1)N(Cc1ccccc1)Cc1ccccc1`, the “hERG current change (%, negative = inhibition) at 10uM” value is on record as -32%.
For `CCN(CC)CCCNC(=O)c1[nH]c2ccccc2c1Sc1ccc(Cl)cc1` the value was -89.5%; for `Nc1c([N+](=O)[O-])c(=O)oc2ccccc12`, 19.1%.
As for `COc1cc(C(=O)Nc2ccc(Oc3ncnc4sc(-c5ccccc5)cc34)cc2)cc(OC)c1OC`, the “hERG current change (%, negative = inhibition) at 10uM” value stood at 14.2%.
To `CCOC(=O)C1CCN(S(=O)(=O)c2c(C)[nH]c(C)c2C(=O)N2CCCCC2)CC1` belongs 8.24%.
Consider `Cc1c(OC(C)C(=O)N[C@@H](Cc2ccccc2)C(=O)O)ccc2c3c(c(=O)oc12)CCCC3` (some centres unmarked), for which the “hERG current change (%, negative = inhibition) at 10uM” value stood at 10.7%.
To `CCc1ccc(OC(C)C(=O)Nc2ccccc2C(=O)N2CCOCC2)cc1` (centres unmarked) belongs 5.32%; to `NC(=O)C[n+]1cccc2ccccc21.[I-]`, 9.16%; to `O=C(Nc1cccnc1N1CCOCC1)c1cc2ccccc2oc1=O`, 9.33%.
Consider `Cc1sc2ncnc(N3CCC(C(=O)Nc4nc(-c5cccs5)cs4)CC3)c2c1C`, for which the “hERG current change (%, negative = inhibition) at 10uM” value is -3.62%.
For `CC(C(=O)Nc1nc(-c2ccc(F)cc2)cs1)N1C(=O)C2CC=CCC2C1=O` (centres unmarked) the value was -36.7%; for `Cc1ccc(C2=C/C(=C\c3cccnc3)C(=O)O2)cc1`, 30.8%; for `O=C(c1ccccc1Cl)N1CCN(S(=O)(=O)c2cccs2)CC1`, 3.29%.
For `O=C(NN=C1CCCC1)c1n[nH]c2c1CCC2` the value was 1.63%; for `Cc1nc([N+](=O)[O-])cn1CC(=O)Nc1ccc2c(c1)OCO2`, -12.7%; for `COc1ccc(NC(=O)CSc2nnc(Cn3cnc([N+](=O)[O-])n3)n2C)cc1`, 1.72%.
As for `CCNC(=S)Nc1cccc(S(=O)(=O)Nc2ccccc2OC)c1`, the “hERG current change (%, negative = inhibition) at 10uM” value turned out to be 4.61%.
Consider `CCOc1ccc(NC(=O)c2c[nH]n3c(=O)cc(C4CCN(C(=O)OC(C)(C)C)CC4)nc23)cc1`, for which the “hERG current change (%, negative = inhibition) at 10uM” value is -4.42%.
To `Cc1ccccc1OCCCN1C(=O)C(=O)c2cccc(C)c21` belongs -0.123%.
For `CC(C)CC(=O)Nc1nnc(SCC(=O)Nc2ccc3c(c2)OCO3)s1` the value was 0.521%; for `O=C(NC1CCCCC1)c1ccccc1C(F)(F)F`, 6.33%; for `CC(=O)c1ccc(NC(=O)CCc2nnc3ccc(N4CCCC4)nn23)cc1`, 8.71%.
For `CC(Cc1nnc(N)s1)c1ccccc1` (centres unmarked) the value was 8.05%; for `Cc1ccc(Cn2nc(C)c3cc(C(=O)OCC(N)=O)sc32)cc1`, 7.64%.
Turning to `COCC(C)n1c(SC(C)C(=O)NC2CCCCC2C)nc2ccccc2c1=O` (centres unmarked), the “hERG current change (%, negative = inhibition) at 10uM” value worked out at 10.9%.
To `CCOC(=O)C1CCCN(S(=O)(=O)c2cccs2)C1` (centres unmarked) belongs -8.05%; to `Cc1ccc(-c2cc(C(=O)Nc3ccc(S(=O)(=O)Nc4nc(C)cc(C)n4)cc3)c3ccccc3n2)cc1`, -1.49%.
Turning to `O=C(CCC(=O)Nc1ccccc1Cl)N/N=C1\CCCc2ccccc21`, the “hERG current change (%, negative = inhibition) at 10uM” value is on record as 40.8%.
Regarding `CCC1CCCCN1C(=O)COc1ccc2c(c1)OCO2` (centres unmarked), the “hERG current change (%, negative = inhibition) at 10uM” value was found to be 12.6%.
To `COCCCNC(=S)Nc1ccc(CC(=O)O)cc1` belongs 9.09%; to `COc1cc(NC(=S)Nc2ccc(Br)cc2Cl)c(OC)cc1Cl`, 8.27%.
To `CCn1c(=S)sc2c(=O)n(CC(=O)NCCCc3ccccc3)c(C)nc21` belongs 18.8%; to `c1cn(CCCNc2ncnc3sc4c(c23)CCC4)cn1`, -37.5%.
To `Cc1ccc(S(=O)(=O)N2CCN(C(=O)COC(=O)c3cccc(Cl)c3)CC2)c(C)c1` belongs 2.65%; to `COc1cccc(CNCc2cccc(Br)c2)c1OC.O=C(O)C(=O)O`, -0.446%; to `CCN1C(C)=C(C)S/C1=C1\SC(=S)N(C2CCCCC2)C1=O`, -1.22%.
In the case of `Cc1ccc2[nH]c3c(c2c1)CN(C(=O)CN1CCN(c2ccccn2)CC1)CC3`, the “hERG current change (%, negative = inhibition) at 10uM” value is on record as -49.1%.
For `Cc1ccc(S(=O)(=O)N/N=C/c2ccc(OCC(=O)Nc3ccccc3Cl)cc2)cc1` the value was 1.73%; for `COc1ccc(N2C(=O)/C(=C/c3ccc(OC)c(OC)c3)C(=O)NC2=S)cc1`, 14.7%.
To `COc1ccccc1N1CCN(Cc2ccco2)CC1.O=C(O)C(=O)O` belongs -26.4%; to `COc1cc(C)ccc1OCc1cc(C(=O)NCc2ccncc2)no1`, 3.47%.
Take `COc1ccc2cc(Br)ccc2c1CC(=O)NCC1CCCO1` (centres unmarked): the “hERG current change (%, negative = inhibition) at 10uM” value is reported as -0.0184%.
To `CCc1ccc(C(=O)c2cnc3ccc(OC)cc3c2N2CCN(CC)CC2)cc1` belongs -67.7%.

The values are drawn from article PMC4336329 (PLoS ONE, 2015).
